Results reported in PubChem BioAssay AID1508623 (National Center for Advancing Translational Sciences (NCATS), 2021).
Out of some 48,000 compounds screened, about 450 (0.94%) were called active. About 19% were inconclusive and are not listed. Calls come from the whole dose curve; as a rule, active = well fitted inhibition curve with a large enough effect; inconclusive = small, poorly fitted or top-dose-only effect; inactive = no such curve, though single readings can be large or run the other way. Some of the results follow.

Assay: Primary qHTS for Identification of Small Molecule Inhibitors of Huntingtin Promoter Activity; note: nearly all actives have a fitted effect of over 50% in size
Conditions: HEK293 HTT promoter firefly luciferase reporter (activity 0% = vehicle and -100% = no light), 24 h; series mostly up to 57.5 µM; activity change, negative = inhibition: at the top concentration
In short: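 Firefly luciferase readout (Dual-Glo, 10 min RT) after 24 h, 37 °C compound exposure (final up to 57.5 uM) of HEK293 reporter cells cultured 24 h beforehand; PTC124 at 50 uM final as control inhibitor; activity scaled vehicle 0%, zero RLU -100%.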

Activity change, negative = inhibition, inactive:
Cc1ccc(NC(=O)CCNS(=O)(=O)c2cccs2)cc1F 15.6%
Cc1cn2c(=O)cc(COC(=O)COc3ccc(F)cc3)nc2s1 -15.1%
COc1ccc(-n2c(=O)c3c(c4cc(OC)ccc4n3C)n(Cc3c(F)cccc3Cl)c2=O)cc1 1.5%
CSc1ncc2c(n1)-c1ccccc1N(Cc1ccccc1C)S2(=O)=O -14.3%
Cc1cccc(-n2c3nc(=O)n(C)c(=O)c-3cc3c(C)nn(-c4ccccc4)c32)c1C -6.75%
COC1(C(F)(F)F)NC(=O)N(c2ccc(F)cc2)C1=O (configuration not stated) -24.3% [at 11.5 µM]
COc1ccc(Cl)cc1NC(=O)N1CCC2(CC1)Oc1ccccc1C(=O)N2Cc1ccc(F)cc1 -27.9%
CSc1nc2sc3c(c2c(=O)n1-c1ccc(C)cc1)CCCC3 -6.45%
Cc1ccc(OCCSc2nc3ccc(NC(=O)COc4ccc(C)cc4)cc3s2)cc1 1.66%
CCOC(=O)c1cnn(-c2cccc(Cl)c2)c1C1CCN(C(=O)OC(C)(C)C)CC1 -6.88%
COc1ccc(NC(=O)N2CCC(n3c(C)nc4cccnc43)CC2)cc1OC 6.44%
Fc1ccc(NCc2nc3ccccc3n2CCOc2ccccc2Cl)cc1 -25.4%
CC1CCc2c(sc3nnn(CC(=O)Nc4ccccc4Cl)c(=O)c23)C1 (configuration not stated) -15.3%
CCCn1cc(S(=O)(=O)c2ccc(OCC)cc2)c(=O)c2cc(C)ccc21 -25.3%
CCCCC(=O)Nc1cc(-c2cn3cccnc3n2)ccc1C -2.23%
CCOc1ccc(-c2c(C)nn3c(C)c(C(=O)NC(C)c4ccccc4)cnc23)cc1OCC (configuration not stated) -26.6%
O=C(CCSCc1ccccc1Cl)NCCc1ccccc1 10.7%
Cc1c(-c2cccc(NC(=O)Cc3ccccc3)c2)nc2ncccn12 -3.93%
O=C(Cn1ccn(-c2ccc(F)c(F)c2)c(=O)c1=O)NCc1ccccc1 -2.91%
Cc1cc(C)c(NC(=O)c2cc(S(=O)(=O)N3CCCC3)cn2C)c(C)c1 -7.04%
Cc1ccc(OCCSc2nc3ccccc3n2CC(=O)N2CCOCC2)cc1C -20.2%
COc1cc(Cl)c(S(=O)(=O)N2CCN(c3c(C)cccc3C)CC2)cc1Cl -6.77%
COc1ccc(CNc2nc(-c3ccccc3)nn2C(=O)c2ccccc2OC)cc1 -2.23%
CCOC(=O)c1cc2c(=O)n3ccccc3nc2n(CC2CCCO2)c1=NC(=O)c1ccc(OCC)cc1 (configuration not stated) -4.32%
CN(Cc1ccccc1)C(=O)c1c[nH]c2ccc(S(=O)(=O)Nc3ccccc3F)cc2c1=O 12%
CCOc1cc(C(=O)N2CC(=O)Nc3ccc(F)cc3C2c2ccccc2)cc(OCC)c1OCC (configuration not stated) -15.7%
COc1ccc(N2CCN(CCCNC(=O)c3sc4ncccc4c3-n3cccc3)CC2)cc1 -25.9%
